According to US7629351B2, “N-((1R,2S,5R)-5-(tert-butylamino)-2-((S)-2-oxo-3-(6-(trifluoromethyl)quinazolin-4-ylamino) pyrrolidin-1-yl)cyclohexyl)acetamide and other modulators of chemokine receptor activity, crystalline forms and process” (Bristol-Myers Squibb Company, priority 2006, dated 2009):

Tests used:
hCCR2 = biological target: T1, hCCR2 (Homo sapiens, UniProt P41597); assay: Human peripheral blood mononuclear cell binding (CCR2 Binding), 125I-human MCP-1; set-up: hPBMCs were isolated from human leukopak (Biological Specialty Inc.) using a standard protocol with Ficoll-Hypaque; endogenous in cells; host or cells: human peripheral blood mononuclear cells (from leukopak, Biological Specialty Inc.); settings: hPBMCs, (n) in brackets
T1 sequence (P41597 1-360 isoform P41597-2): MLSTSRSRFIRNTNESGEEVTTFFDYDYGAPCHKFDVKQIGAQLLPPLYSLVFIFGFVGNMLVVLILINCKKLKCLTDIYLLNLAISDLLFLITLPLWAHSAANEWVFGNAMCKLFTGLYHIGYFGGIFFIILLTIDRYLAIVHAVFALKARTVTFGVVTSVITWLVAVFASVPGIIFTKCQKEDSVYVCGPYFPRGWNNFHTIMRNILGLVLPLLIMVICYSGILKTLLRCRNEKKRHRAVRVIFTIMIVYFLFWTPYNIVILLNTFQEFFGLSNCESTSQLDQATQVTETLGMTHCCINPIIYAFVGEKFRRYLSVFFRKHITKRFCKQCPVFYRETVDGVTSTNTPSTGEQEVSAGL

hERG = hERG (Homo sapiens, UniProt Q12809); assay: hERG Flux (Tl+ flux, FLIPR, HEK293 cells); format: cell-based; set-up: expressed in transfected cells; settings: HEK293 cells expressing hERG
UniProt Q12809, sequence (Q12809 whole entry): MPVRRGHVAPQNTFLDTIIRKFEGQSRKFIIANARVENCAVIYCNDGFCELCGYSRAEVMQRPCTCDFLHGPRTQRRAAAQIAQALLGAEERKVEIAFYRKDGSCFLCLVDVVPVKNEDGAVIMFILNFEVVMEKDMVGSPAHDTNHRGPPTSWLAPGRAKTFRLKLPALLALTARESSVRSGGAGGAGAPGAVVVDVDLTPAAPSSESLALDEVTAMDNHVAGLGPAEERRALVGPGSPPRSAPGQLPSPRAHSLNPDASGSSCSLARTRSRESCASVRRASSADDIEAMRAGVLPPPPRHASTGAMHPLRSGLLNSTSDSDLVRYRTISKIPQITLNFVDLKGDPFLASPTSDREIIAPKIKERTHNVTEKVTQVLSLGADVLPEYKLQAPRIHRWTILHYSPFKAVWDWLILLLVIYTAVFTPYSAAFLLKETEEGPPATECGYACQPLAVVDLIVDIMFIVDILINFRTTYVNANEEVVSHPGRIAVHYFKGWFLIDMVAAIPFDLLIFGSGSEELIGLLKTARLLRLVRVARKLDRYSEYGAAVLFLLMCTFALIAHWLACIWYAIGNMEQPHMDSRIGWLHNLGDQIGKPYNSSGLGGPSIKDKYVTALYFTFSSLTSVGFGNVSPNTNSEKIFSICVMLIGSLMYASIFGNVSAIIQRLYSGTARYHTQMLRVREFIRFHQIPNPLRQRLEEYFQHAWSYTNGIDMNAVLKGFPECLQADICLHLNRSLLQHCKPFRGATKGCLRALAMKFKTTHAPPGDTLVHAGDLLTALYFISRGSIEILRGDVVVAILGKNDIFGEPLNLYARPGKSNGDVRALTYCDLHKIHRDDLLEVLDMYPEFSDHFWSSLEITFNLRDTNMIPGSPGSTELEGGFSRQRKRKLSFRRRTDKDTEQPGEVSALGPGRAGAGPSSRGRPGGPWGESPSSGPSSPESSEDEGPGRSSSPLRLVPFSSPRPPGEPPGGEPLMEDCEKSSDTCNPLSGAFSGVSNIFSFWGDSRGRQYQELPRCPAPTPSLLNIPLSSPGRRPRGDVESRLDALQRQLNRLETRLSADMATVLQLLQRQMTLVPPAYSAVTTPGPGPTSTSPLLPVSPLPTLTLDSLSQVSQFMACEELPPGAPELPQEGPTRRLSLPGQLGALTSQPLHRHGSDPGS

hCCR2 KI mice (EAE) = assay: EAE model of multiple sclerosis in hCCR2 KI mice; format: in vivo; settings: in words

SMILES: CC(=O)N[C@@H]1C[C@H](NC(C)(C)C)CC[C@@H]1N1CC[C@H](Nc2ncnc3ccc(C(F)(F)F)cc23)C1=O [Example 1, N-((1R,2S,5R)-5-(tert-butylamino)-2-((S)-2-oxo-3-(6-(trifluoromethyl)quinazolin-4-ylamino)pyrrolidin-1-yl)cyclohexyl)acetamide]
- IC50 (hCCR2): 2.74 ± 1.34 nM
- IC50 (hERG): > 80000 nM
- clinical score (FIG. 22) (hCCR2 KI mice (EAE)): reduced clinical score
